Reference: the CheMixHub viscosity set

SMILES	viscosity (298.15 K, 101 kPa)	viscosity (298.15 K, 101.33 kPa)	viscosity (308.15 K, 101 kPa)	viscosity (308.15 K, 101.33 kPa)	viscosity (303.15 K, 101.33 kPa)	viscosity (313.15 K, 101.33 kPa)	viscosity (293.15 K, 101 kPa)	viscosity (293.15 K, 101.33 kPa)	viscosity (303.15 K, 101 kPa)	viscosity (308.15 K, 101.3 kPa)	viscosity (313.15 K, 101 kPa)	viscosity (318.15 K, 101 kPa)	viscosity (323.15 K, 101 kPa)
CCCCCCCCCC	0.86 ± 0.04 mPa·s [study A] and 0.8372 ± 0.013 mPa·s [study B] and 0.8372 ± 0.0084 mPa·s [study C] and 0.86 ± 0.008 mPa·s [study D]	0.8391 ± 0.0072 mPa·s [study A] and 0.831 ± 0.011 mPa·s [study B] and 0.832 ± 0.021 mPa·s [study C] and 0.8459 ± 0.022 mPa·s, 0.8459 ± 0.011 mPa·s [study D] and 0.844 ± 0.006 mPa·s [study E] and 0.844 ± 0.011 mPa·s [study F] and 0.848 ± 0.011 mPa·s [study G] and 0.82 ± 0.015 mPa·s [study H]	0.732 ± 0.011 mPa·s [study A] and 0.74 ± 0.006 mPa·s [study B] and 0.7337 ± 0.009 mPa·s [study C] and 0.7371 ± 0.012 mPa·s [study D]	0.721 ± 0.019 mPa·s [study A] and 0.733 ± 0.005 mPa·s [study B] and 0.733 ± 0.011 mPa·s [study C] and 0.74 ± 0.01 mPa·s [study D] and 0.711 ± 0.011 mPa·s [study E]									
CCCCCCCO					4.771 ± 0.21 mPa·s [study A] and 4.995 ± 0.22 mPa·s [study B] and 4.785 ± 0.029 mPa·s [study C] and 4.759 ± 0.055 mPa·s [study D] and 4.785 ± 0.036 mPa·s [study E] and 4.785 ± 0.053 mPa·s [study F] and 4.783 ± 0.054 mPa·s, 4.681 ± 0.053 mPa·s [study G]	3.579 ± 0.023 mPa·s [study A] and 3.579 ± 0.027 mPa·s [study B] and 3.671 ± 0.085 mPa·s [study C] and 3.671 ± 0.028 mPa·s [study D] and 3.579 ± 0.041 mPa·s (2×) [study E]							
CS(C)=O			1.69 ± 0.07 mPa·s [study A] and 1.48 ± 0.14 mPa·s [study B] and 1.631 ± 0.016 mPa·s [study C] and 1.554 ± 0.05 mPa·s [study D] and 1.69 ± 0.04 mPa·s [study E] and 1.59 ± 0.01 mPa·s [study F] and 1.563 ± 0.04 mPa·s [study G]		1.79 ± 0.07 mPa·s [study A] and 2.025 ± 0.042 mPa·s [study B] and 1.778 ± 0.018 mPa·s [study C] and 1.662 ± 0.011 mPa·s [study D]		2.226 ± 0.029 mPa·s [study A] and 2.27 ± 0.05 mPa·s [study B] and 2.2 ± 0.019 mPa·s [study C] and 2.191 ± 0.07 mPa·s [study D] and 2.18 ± 0.03 mPa·s [study E] and 2.184 ± 0.057 mPa·s [study F] and 2.184 ± 0.022 mPa·s [study G] and 2.23 ± 0.06 mPa·s [study H]	2.48 ± 0.05 mPa·s, 2.479 ± 0.051 mPa·s [study A] and 2.244 ± 0.067 mPa·s [study B] and 2.194 ± 0.1 mPa·s [study C]	1.79 ± 0.02 mPa·s, 1.729 ± 0.044 mPa·s, 1.7 ± 0.021 mPa·s, 1.73 ± 0.02 mPa·s, 1.794 ± 0.011 mPa·s, 1.786 ± 0.022 mPa·s, 1.791 ± 0.017 mPa·s, 1.79 ± 0.05 mPa·s, 1.784 ± 0.023 mPa·s, 1.7 ± 0.015 mPa·s, 1.55 ± 0.15 mPa·s, 1.732 ± 0.056 mPa·s [several studies]	1.601 ± 0.042 mPa·s, 1.604 ± 0.042 mPa·s [study A] and 1.63 ± 0.039 mPa·s, 1.63 ± 0.077 mPa·s [study B]	1.5 ± 0.03 mPa·s, 1.448 ± 0.037 mPa·s, 1.498 ± 0.015 mPa·s, 1.498 ± 0.02 mPa·s, 1.55 ± 0.06 mPa·s, 1.39 ± 0.13 mPa·s, 1.49 ± 0.03 mPa·s, 1.555 ± 0.02 mPa·s, 1.427 ± 0.046 mPa·s [several studies]	1.42 ± 0.06 mPa·s [study A] and 1.31 ± 0.13 mPa·s [study B] and 1.27 ± 0.041 mPa·s [study C] and 1.42 ± 0.03 mPa·s [study D] and 1.42 ± 0.03 mPa·s [study E] and 1.342 ± 0.034 mPa·s [study F]	1.32 ± 0.06 mPa·s [study A] and 1.27 ± 0.017 mPa·s [study B] and 1.311 ± 0.017 mPa·s [study C] and 1.19 ± 0.03 mPa·s [study D] and 1.27 ± 0.034 mPa·s [study E] and 1.27 ± 0.012 mPa·s [study F] and 1.278 ± 0.016 mPa·s [study G]

± gives the uncertainty stated by the source. For part of its entries the source gives two or more results. They are shown here; other results are not. There may be further records. Values that stand side by side are repeats (runs, samples, wells, individuals or studies). Brackets tell where a record comes from. Letters count within one entry. Marks such as (2×) count equal records among those shown.
